# From the supplement of paper PMC8728848
# This is one part of the list.
# Key:
# Assay in all cases: glycan array binding signal (z-score within array); higher = stronger binding
# Conditions in all cases: glycan notation: IUPAC condensed, linker removed
# [1] = target: GlcNAc(a1-4)Gal(b1-4)GalNAc
# Procedure, shortened: (§1)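 Columns mapping to the same glycan were averaged after glycan names were converted to IUPAC-condensed notation. The data come from 3228 arrays in the Consortium for Functional Glycomics database, limited to those with an available protein sequence. Binding is reported as a within-array Z-score averaged across arrays of one protein sequence and across linkers.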
# [2] = target: GlcNAc(a1-4)Gal(b1-4)GlcNAc
# Procedure, shortened: as §1
# [3] = target: GlcNAc(a1-4)Gal(b1-4)GlcNAc(b1-3)Gal(b1-4)Glc
# Procedure, shortened: as §1
# [4] = target: GlcNAc(a1-4)Gal(b1-4)GlcNAc(b1-3)Gal(b1-4)GlcNAc
# Procedure, shortened: as §1
# [5] = target: GlcNAc(a1-4)Gal(b1-4)GlcNAc(b1-3)Gal(b1-4)GlcNAc(b1-3)Gal(b1-4)GlcNAc
# Procedure, shortened: as §1
# [6] = target: GlcNAc(a1-4)Gal(b1-4)GlcNAc(b1-3)Gal(b1-4)[Fuc(a1-3)]GlcNAc(b1-3)Gal(b1-4)[Fuc(a1-3)]GlcNAc
# Procedure, shortened: as §1
# [7] = target: GlcNAc(a1-6)Gal(b1-4)GlcNAc
# Procedure, shortened: as §1
# [8] = target: GlcNAc(b1-2)Gal(b1-3)GalNAc
# Procedure, shortened: as §1
# [9] = target: GlcNAc(b1-2)Gal(b1-3)GlcNAc
# Procedure, shortened: as §1
# [10] = target: GlcNAc(b1-2)Man(a1-3)[GlcNAc(b1-2)Man(a1-6)]Man(b1-4)GlcNAc(b1-4)GlcNAc
# Procedure, shortened: as §1
# [11] = target: GlcNAc(b1-2)Man(a1-3)[GlcNAc(b1-2)Man(a1-6)]Man(b1-4)GlcNAc(b1-4)[Fuc(a1-6)]GlcNAc
# Procedure, shortened: as §1
# [12] = target: GlcNAc(b1-2)Man(a1-3)[GlcNAc(b1-4)][GlcNAc(b1-2)Man(a1-6)]Man(b1-4)GlcNAc(b1-4)GlcNAc
# Procedure, shortened: as §1
# [13] = target: GlcNAc(b1-2)Man(a1-3)[GlcNAc(b1-4)][GlcNAc(b1-2)Man(a1-6)]Man(b1-4)GlcNAc(b1-4)[Fuc(a1-6)]GlcNAc
# Procedure, shortened: as §1
# [14] = target: GlcNAc(b1-2)[GlcNAc(b1-4)]Man(a1-3)[GlcNAc(b1-2)Man(a1-6)]Man(b1-4)GlcNAc(b1-4)GlcNAc
# Procedure, shortened: as §1
# [15] = target: GlcNAc(b1-2)[GlcNAc(b1-4)]Man(a1-3)[GlcNAc(b1-4)][GlcNAc(b1-2)Man(a1-6)]Man(b1-4)GlcNAc(b1-4)GlcNAc
# Procedure, shortened: as §1
# [16] = target: GlcNAc(b1-2)[GlcNAc(b1-4)]Man(a1-3)[GlcNAc(b1-4)][GlcNAc(b1-2)[GlcNAc(b1-6)]Man(a1-6)]Man(b1-4)GlcNAc(b1-4)GlcNAc
# Procedure, shortened: as §1
# [17] = target: GlcNAc(b1-2)[GlcNAc(b1-4)]Man(a1-3)[GlcNAc(b1-4)][GlcNAc(b1-2)[GlcNAc(b1-6)]Man(a1-6)]Man(b1-4)GlcNAc(b1-4)[Fuc(a1-6)]GlcNAc
# Procedure, shortened: as §1
# [18] = target: GlcNAc(b1-2)[GlcNAc(b1-6)]Man(a1-6)[GlcNAc(b1-2)Man(a1-3)]Man(b1-4)GlcNAc(b1-4)GlcNAc
# Procedure, shortened: as §1
# [19] = target: GlcNAc(b1-2)[GlcNAc(b1-6)]Man(a1-6)[GlcNAc(b1-2)Man(a1-3)]Man(b1-4)GlcNAc(b1-4)[Fuc(a1-6)]GlcNAc
# Procedure, shortened: as §1
# [20] = target: GlcNAc(b1-2)[GlcNAc(b1-6)]Man(a1-6)[GlcNAc(b1-2)Man(a1-3)][GlcNAc(b1-4)]Man(b1-4)GlcNAc(b1-4)GlcNAc
# Procedure, shortened: as §1
# [21] = target: GlcNAc(b1-2)[GlcNAc(b1-6)]Man(a1-6)[GlcNAc(b1-4)][GlcNAc(b1-2)Man(a1-3)]Man(b1-4)GlcNAc(b1-4)GlcNAc
# Procedure, shortened: as §1
# GlcNAc(b1-3)Fuc = target: GlcNAc(b1-3)Fuc
# Procedure, shortened: as §1
# GlcNAc(b1-3)Gal = target: GlcNAc(b1-3)Gal
# Procedure, shortened: as §1
# [22] = target: GlcNAc(b1-3)Gal(b1-3)GalNAc
# Procedure, shortened: as §1
# GlcNAc(b1-3)Gal(b1-4)Glc = target: GlcNAc(b1-3)Gal(b1-4)Glc
# Procedure, shortened: as §1
# [23] = target: GlcNAc(b1-3)Gal(b1-4)GlcNAc
# Procedure, shortened: as §1
# [24] = target: GlcNAc(b1-3)Gal(b1-4)GlcNAc(b1-2)Man(a1-3)[GlcNAc(b1-3)Gal(b1-4)GlcNAc(b1-2)Man(a1-6)]Man(b1-4)GlcNAc(b1-4)GlcNAc
# Procedure, shortened: as §1
# [25] = target: GlcNAc(b1-3)Gal(b1-4)GlcNAc(b1-2)Man(a1-3)[GlcNAc(b1-3)Gal(b1-4)GlcNAc(b1-2)Man(a1-6)]Man(b1-4)GlcNAc(b1-4)[Fuc(a1-6)]GlcNAc
# Procedure, shortened: as §1
# [26] = target: GlcNAc(b1-3)Gal(b1-4)GlcNAc(b1-2)[GlcNAc(b1-3)Gal(b1-4)GlcNAc(b1-6)]Man(a1-6)[GlcNAc(b1-3)Gal(b1-4)GlcNAc(b1-2)Man(a1-3)]Man(b1-4)GlcNAc(b1-4)GlcNAc
# Procedure, shortened: as §1
# [27] = target: GlcNAc(b1-3)Gal(b1-4)GlcNAc(b1-3)Gal(b1-4)GlcNAc
# Procedure, shortened: as §1
binder,measurement,setting,value
"Epa1-NP (Candida glabrata), Q6VBJ0 (protein) MILNPALFLNKCVCIYTTLILLLLTNGGYATSSNDISLASKDPTTFPLGCSPDITTPKKGLSMELYSYDFRKKGSYPCWDAAYLDPNYPRTGYKSHRLLAKVDGVTGNINFYYHATKGCTPQLGHLPASYNYPKPLTMTNFTMLLYGYFRPKVTGFHTFTISADDLLFVNFGAGNAFDCCRRDSSADHFGNYQAYAIWGSKTAKDELTVHLDAGVYYPIRLFYNNREYDGALSFTFKTESNENTVSDFSEYFFSLDDTEEGCPGLISYDSSCASVKTSKIIGIDYHTETPNENLVPITKTIYHLGIPCTGTTTTPLCGSGFYDPLANKCVTINTSSTSSVTKTTSHTTSKEVSFHSSISSQKTLIPKSIPSPYGPIKSQSIPTEMETSSEISSSEYAFSDVISTPSHSPYTKKHSSLNSSSYTSTVIHSLTSYSISQGIFSTSLSEQNITSKSSTDKFSTATSMSNNITQSSIIISQFSTNNENYTTTSMHTSSDKISTETLNNSISTTTSILFSNSSTILKNNTTIISSDKDTHYHPVNPTIVCSTNKTEIICASITQPSISNSNNHWSSSVLKFNSTTVRSTLPSSAGSNETSINVPFSSSTESNTSTSSTSTSNSKMVRSTLPSSAGSNETSISVPFSSSTESNTSTSSTSTSNSKMVRSTLPSSAGSNETSINVPFSSSTESNTSTSSTSTSNSKTVRSTPFSSAGIIMTSLSQRNNKSASSYASSNSKCYNTADSCRKVHSTPSYLLTSSYTSEGVDYDCSLVSTKLKINDTNCVNNKHTTKSCLKTSVTTTIPTLEIKTARKSSSNTIGLHSYPTSSPNKSISSAPIIGYISSFKTIKTASPSYQTSDLTTITTITSLNNPGSTAVENTHESNDKSRKTSSNDISSKHSVIKETKDAVESSNKSHQTNTLKCSSIIIASSSHNSYESLGGTTLTLTLSKVYSPQNNDTLPFLEISEVNPSRTVLPESSKMMQYLTSTEERNKTARNTIATNIVSISTFHFEGEGNAIRMGYTQLLLMLIGIIVMNIGT",glycan array binding signal (z-score),[1],-0.302
same,glycan array binding signal (z-score),[2],-0.244
same,glycan array binding signal (z-score),[3],-0.255
same,glycan array binding signal (z-score),[4],-0.217
same,glycan array binding signal (z-score),[5],-0.291
same,glycan array binding signal (z-score),[6],-0.177
same,glycan array binding signal (z-score),[7],1.83
same,glycan array binding signal (z-score),[8],-0.279
same,glycan array binding signal (z-score),[9],-0.549
same,glycan array binding signal (z-score),[10],-0.375
same,glycan array binding signal (z-score),[11],-0.278
same,glycan array binding signal (z-score),[12],-0.294
same,glycan array binding signal (z-score),[13],-0.289
same,glycan array binding signal (z-score),[14],-0.232
same,glycan array binding signal (z-score),[15],-0.281
same,glycan array binding signal (z-score),[16],-0.303
same,glycan array binding signal (z-score),[17],-0.285
same,glycan array binding signal (z-score),[18],-0.303
same,glycan array binding signal (z-score),[19],-0.277
same,glycan array binding signal (z-score),[20],-0.3
same,glycan array binding signal (z-score),[21],-0.289
same,glycan array binding signal (z-score),GlcNAc(b1-3)Fuc,-0.284
same,glycan array binding signal (z-score),GlcNAc(b1-3)Gal,-0.331
same,glycan array binding signal (z-score),[22],-0.284
same,glycan array binding signal (z-score),GlcNAc(b1-3)Gal(b1-4)Glc,-0.315
same,glycan array binding signal (z-score),[23],-0.296
same,glycan array binding signal (z-score),[24],-0.287
same,glycan array binding signal (z-score),[25],-0.277
same,glycan array binding signal (z-score),[26],-0.245
same,glycan array binding signal (z-score),[27],-0.165
